Changes are numbered by the printed parent chain. In names and notes the source's numbering stands. These are yes or no findings as the source states them, for the method shown. For some of these results: In cells and extracts the contact can be indirect. Some entries that bind do so weakly or less than the wild type. For some of these results: Sequences can lack the tags named with a protein.

Experiment [1] deals with T1, recombinant GST-tagged Irga6, wild type (mouse) (UniProt Q9QZ85).
T1 sequence: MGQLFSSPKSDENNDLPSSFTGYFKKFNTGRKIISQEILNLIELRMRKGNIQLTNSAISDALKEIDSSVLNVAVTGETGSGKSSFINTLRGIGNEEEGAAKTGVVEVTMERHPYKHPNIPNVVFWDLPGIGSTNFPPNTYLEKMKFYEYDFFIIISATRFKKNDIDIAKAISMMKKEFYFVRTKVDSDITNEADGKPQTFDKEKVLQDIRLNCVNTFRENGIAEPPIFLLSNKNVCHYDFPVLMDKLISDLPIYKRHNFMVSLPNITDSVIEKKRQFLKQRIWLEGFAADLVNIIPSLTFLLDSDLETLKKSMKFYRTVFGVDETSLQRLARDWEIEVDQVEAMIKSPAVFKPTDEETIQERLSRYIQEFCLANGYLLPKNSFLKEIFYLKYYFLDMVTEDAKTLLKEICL
As to the kind of experiment: pull-down; GST-Irga6 bound to glutathione Sepharose 4B, incubated overnight at 4°C with postnuclear supernatant of IFNγ-induced gs3T3 cells (PBS/0.1% Thesit/3 mM MgCl2) with 0.5 mM GDP; Western blot; only the target purified. For orientation: A western blot detects proteins with antibodies after separation by electrophoresis.

The target in experiment [2] is T1, recombinant GST-tagged Irga6, wild type (mouse). Description: condition: only with 0.5 mM mant-GDP in place of GDP; pull-down; GST-Irga6 bound to glutathione Sepharose 4B, incubated overnight at 4°C with postnuclear supernatant of IFNγ-induced gs3T3 cells (PBS/0.1% Thesit/3 mM MgCl2) with 0.5 mM mant-GDP; Western blot; only the target purified.
In a further experiment the target is Irga6-E77A (mouse) (UniProt Q9QZ85). Description: light scattering; self-association (oligomerisation) of 80 μM Irga6 with 10 mM GTP at 37°C; B1 buffer (50 mM Tris/HCl pH 7.4, 5 mM MgCl2)/2 mM DTT; conventional light scattering at 350 or 600 nm; both purified.
The target in the next experiment is Irga6-D164N (mouse) (UniProt Q9QZ85). As to the kind of experiment: dynamic light scattering; self-association (oligomerisation) of 80 μM Irga6 mutant proteins with 10 mM GTP (GDP as comparison), DLS at 650 nm, 37°C (Asp164 mutants 20°C or 37°C); B1 buffer/2 mM DTT; both purified.
A further experiment deals with Irga6-N191R (mouse) (UniProt Q9QZ85). Description: light scattering; self-association (oligomerisation) of 80 μM Irga6 with 10 mM GTP at 37°C; B1 buffer (50 mM Tris/HCl pH 7.4, 5 mM MgCl2)/2 mM DTT; conventional light scattering at 350 or 600 nm; both purified.
For a further experiment, the target named is Irga6-R159E (mouse) (UniProt Q9QZ85). The experiment is described as above.
Another experiment has as its target Irga6-E106K (mouse) (UniProt Q9QZ85). Description: dynamic light scattering; self-association (oligomerisation) of 80 μM Irga6 mutant proteins with 10 mM GTP (GDP as comparison), DLS at 650 nm, 37°C (Asp164 mutants 20°C or 37°C); B1 buffer/2 mM DTT; both purified.
The target of a further experiment is Irga6-K161E (mouse) (UniProt Q9QZ85). Description: light scattering; self-association (oligomerisation) of 80 μM Irga6 with 10 mM GTP at 37°C; B1 buffer (50 mM Tris/HCl pH 7.4, 5 mM MgCl2)/2 mM DTT; conventional light scattering at 350 or 600 nm; both purified.
In a further experiment the target is Irga6-D186N (mouse) (UniProt Q9QZ85). Description: light scattering; self-association of 80 μM Irga6-D186N with 10 mM GTP and 1 mM XTP added, 37°C; both purified.
The target in a further experiment is Irga6-K196D (mouse) (UniProt Q9QZ85). Description: light scattering; self-association (oligomerisation) of 80 μM Irga6 with 10 mM GTP at 37°C; B1 buffer (50 mM Tris/HCl pH 7.4, 5 mM MgCl2)/2 mM DTT; conventional light scattering at 350 or 600 nm; both purified.
Experiment [3] concerns the target Irga6 (IIGP1), wild type, recombinant, GST cleaved off (mouse) (UniProt Q9QZ85). As to the kind of experiment: light scattering + other: dynamic light scattering; Irga6 in the presence of GDP at 37°C; B1 buffer/2 mM DTT; both purified.
Experiment [4] shares this target. Description: light scattering + other: dynamic light scattering; self-association of 80 μM WT Irga6 with 10 mM 3'dGTP at 37°C; both purified.
Experiment [5] shares this target. Description: condition: only with 10 mM mant-GTP in place of GTP; light scattering; self-association of 80 μM WT Irga6 with 10 mM mant-GTP at 37°C; both purified.
The target is the same in experiment [6]. Description: condition: only with 10 mM 2'3'ddGTP in place of GTP; light scattering + other: dynamic light scattering; self-association of 80 μM WT Irga6 with 10 mM 2'3'ddGTP at 37°C; both purified.
Experiment [7] concerns the target T1, recombinant GST-tagged Irga6, wild type (mouse). Description: pull-down; GST-Irga6 bound to glutathione Sepharose 4B, incubated overnight at 4°C with postnuclear supernatant of IFNγ-induced gs3T3 cells (PBS/0.1% Thesit/3 mM MgCl2) with 0.5 mM GTPγS; Western blot; only the target purified.

B1: Irgm3 (IGTP) (protein, UniProt Q9DCE9 1-423)
chain: MDLVTKLPQNIWKTFTLFINMANYLKRLISPWSKSMTAGESLYSSQNSSSPEVIEDIGKAVTEGNLQKVIGIVKDEIQSKSRYRVKIAVTGDSGNGMSSFINALRFIGHEEEDSAPTGVVRTTKKPACYSSDSHFPYVELWDLPGLGATAQSVESYLEEMQISTFDLIIIVASEQFSSNHVKLAITMQRMRKRFYVVWTKLDRDLSTSTFPEPQLLQSIQRNIRENLQQAQVRDPPLFLISCFSPSFHDFPELRNTLQKDIFSIRYRDPLEIISQVCDKCISNKAFSLKEDQMLMKDLEAAVSSEDDTANLERGLQTYQKLFGVDDGSLQQVARSTGRLEMGSRALQFQDLIKMDRRLELMMCFAVNKFLRLLESSWWYGLWNVVTRYFRHQRHKLVIEIVAENTKTSLRKALKDSVLPPEIH
Take B1: the figures for the binding entry in experiment [1] and in experiment [2] were “binds” and “no binding”, respectively.

B2: Irga6-E77A (enzyme, UniProt Q9QZ85 1-411)
chain: T1 sequence with E77A
For the molecule B2, in the experiment with Irga6-E77A (mouse), the binding entry is given as “no binding (tested: 80 μM)”.

B3: Irga6-D164N (enzyme, UniProt Q9QZ85 1-411)
chain: T1 sequence with D164N
Turning to B3, the binding result with Irga6-D164N (mouse) is recorded as “no binding (tested: 80 μM)”.

B4: Irga6-N191R (enzyme, UniProt Q9QZ85 1-411)
chain: T1 sequence with N191R
With B4, the binding result in the experiment with Irga6-N191R (mouse) was “no binding (tested: 80 μM)”.

B5: Irga6-R159E (enzyme, UniProt Q9QZ85 1-411)
chain: T1 sequence with R159E
Consider B5, for which the binding result in the experiment with Irga6-R159E (mouse) is reported as “no binding (tested: 80 μM)”.

B6: Irga6-E106K (enzyme, UniProt Q9QZ85 1-411)
chain: T1 sequence with E106K
With B6, the binding entry in the experiment with Irga6-E106K (mouse) is “no binding (tested: 80 μM)”.

B7: Irga6-K161E (enzyme, UniProt Q9QZ85 1-411)
chain: T1 sequence with K161E
Take B7: in the experiment with Irga6-K161E (mouse), the binding result was “no binding (tested: 80 μM)”.

B8: Irga6-D186N (enzyme, mouse)
chain: T1 sequence with D186N
notes: Irga6 (IIGP1), mouse; mutant made in pGEX-4T-2-Irga6; also called G4-motif mutant; source: E. coli BL21, purified (glutathione Sepharose, GST cleaved off with thrombin, Superdex 75); not shown: GST, N-terminal, cleaved
For B8, in the experiment with Irga6-D186N (mouse), the binding result is reported as “no binding (condition: with 1 mM XTP added to 10 mM GTP)”.

B9: Irga6-K196D (enzyme, UniProt Q9QZ85 1-411)
chain: T1 sequence with K196D
Take B9: the binding entry with Irga6-K196D (mouse) is on record as “no binding (tested: 80 μM)”.

B10: Irga6 (IIGP1), wild type, recombinant, GST cleaved off (enzyme, mouse)
chain: T1 sequence
notes: Irga6 (IIGP1), mouse immunity-related GTPase; also called WT Irga6; source: E. coli BL21, purified (glutathione Sepharose, GST cleaved off with thrombin, Superdex 75); not shown: GST, N-terminal, cleaved
B10: the binding result is “no binding (condition: with GDP in place of GTP)” in experiment [3], “no binding (condition: with 10 mM 3'dGTP in place of GTP)” in [4], “no binding” in [5] and “no binding” in [6].

B11: Irgb6 (TGTP) (protein, UniProt Q62293 1-415)
chain: MAWASSFDAFFKNFKRESKIISEYDITLIMTYIEENKLQKAVSVIEKVLRDIESAPLHIAVTGETGAGKSTFINTLRGVGHEEKGAAPTGAIETTMKRTPYPHPKLPNVTIWDLPGIGTTNFTPQNYLTEMKFGEYDFFIIISATRFKENDAQLAKAIAQMGMNFYFVRTKIDSDLDNEQKFKPKSFNKEEVLKNIKDYCSNHLQESLDSEPPVFLVSNVDISKYDFPKLETKLLQDLPAHKRHVFSLSLQSLTEATINYKRDSLKQKVFLEAMKAGALATIPLGGMISDILENLDETFNLYRSYFGLDDASLENIAQDLNMSVDDFKVHLRFPHLFAEHNDESLEDKLFKYIKHISSVTGGPVAAVTYYRMAYYLQNLFLDTAANDAIALLNSKALFEKKVGPYISEPPEYWEA
For B11, the binding result is given as “no binding (condition: with 0.5 mM GDP in place of GTPγS)” in experiment [1] and “binds” in [7].

(Values after article PMC3042988, “The activation mechanism of Irga6, an interferon-inducible GTPase contributing to mouse resistance against Toxoplasma gondii” (BMC Biology, 2011).)
